Reference: PubChem BioAssay AID1508642 (National Center for Advancing Translational Sciences (NCATS), 2021)
The campaign covered roughly 43,000 compounds. About 200 (0.47%) were called active. About 12% were inconclusive and are not listed. Calls come from the whole dose curve; as a rule, active = well fitted cell-killing curve with a large enough effect; inconclusive = small, poorly fitted or top-dose-only effect, or effect the other way; inactive = flat fitted curve, though single readings scatter. The list shows a part of the results.

Experiment: Cell viability qHTS assay in S16 Pmp22-F2sN cells; note: nearly all actives have a fitted effect of over 65% in size
Details: S16 Pmp22-F2sN Schwann cells viability, CellTiter-Glo, 24 h; series mostly up to 57.5 µM; activity change, negative = cytotoxicity: at the top concentration
Procedure, shortened: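 Viability was measured by CellTiter-Glo luminescence (15 min, room temperature). This followed 24 h at 37 °C of compound exposure (23 nL pin transfer) in S16 Pmp22-F2sN Schwann cells, 500-1,000 per well.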
% is set by controls: 0 for no effect and ±100 for the full control effect.

Q: Which “activity change, negative = cytotoxicity” value does the source give for COC(=O)CC1Oc2ccc(C)cc2-n2cc(-c3ccc(F)cc3)nc21 (centres undefined) here?
A: inactive: 6.99%

Q: For O=C(CCC1N=C2c3ccccc3N=C(SCc3ccccc3Cl)N2C1=O)N1CCN(c2ccccc2)CC1 (centres undefined), which “activity change, negative = cytotoxicity” value is on record?
A: inactive: 2.69%

Q: With COc1ccc(Cn2ccc3nc(C)c(C(=O)NCc4ccc(C)cc4)cc3c2=O)cc1 as the compound, how does the “activity change, negative = cytotoxicity” value read?
A: inactive: -7.42%

Q: For CC1(C)CC(=O)c2cc(-c3nc(-c4ccc(Cl)cc4)cs3)c(=O)n(-c3ccc(F)cc3)c2C1, which “activity change, negative = cytotoxicity” value is on record?
A: inactive: -22%

Q: With COc1ccc(-c2oc3ncn4nc(-c5ccccc5Cl)nc4c3c2-c2ccc(OC)cc2)cc1 as the compound, how does the “activity change, negative = cytotoxicity” value read?
A: inactive: 2.23%

Q: Which “activity change, negative = cytotoxicity” value does the source give for Cc1cccc(OCCSc2nc3ccc(NC(=O)COc4ccccc4F)cc3s2)c1 here?
A: inactive: 0.0159%

Q: With COc1ccc(N2CCN(C(=O)c3cc(NS(=O)(=O)c4ccc(F)cc4)ccn3)CC2)cc1 as the compound, how does the “activity change, negative = cytotoxicity” value read?
A: inactive: 17.7%

Q: Which “activity change, negative = cytotoxicity” value does the source give for CCOc1ccc(CCNC(=O)CCN2N=C(c3ccc(OC)cc3)CCC2=O)cc1OCC here?
A: inactive: 4.6%

Q: For Cc1ccc(C)c(NC(=O)CSc2ncc3c(n2)-c2cc(Cl)ccc2N(Cc2ccccc2F)S3(=O)=O)c1, which “activity change, negative = cytotoxicity” value is on record?
A: inactive: -18.8%

Q: For Cc1ccc(C)c(N2CCN(C(=O)CCn3c(=O)[nH]c4ccccc4c3=O)CC2)c1, which “activity change, negative = cytotoxicity” value is on record?
A: inactive: -0.401%

Q: With O=C(CSc1nc(=O)[nH]c2c1CCC2)NCc1ccc(Cl)cc1 as the compound, how does the “activity change, negative = cytotoxicity” value read?
A: inactive: 2.54%

Q: Which “activity change, negative = cytotoxicity” value does the source give for Cc1cccc(C)c1OCCn1c(C2CC(=O)N(Cc3ccc(F)cc3)C2)nc2ccccc21 (centres undefined) here?
A: inactive: -19.3%

Q: With O=C(CCS(=O)(=O)c1cccc2nonc12)Nc1cccc(F)c1 as the compound, how does the “activity change, negative = cytotoxicity” value read?
A: inactive: 0.569%

Q: With CC(C)NC(=O)CSc1nc2ccccc2c(=O)n1Cc1ccc(C(=O)NC(C)C)cc1 as the compound, how does the “activity change, negative = cytotoxicity” value read?
A: inactive: -2.3%

Q: For CC(CNC(=O)c1ccc2c(c1)nc1n2CCOC1)c1ccccc1 (centres undefined), which “activity change, negative = cytotoxicity” value is on record?
A: inactive: 15.9%

Q: With COc1ccc(CN(Cc2ccco2)c2cnc(S(C)(=O)=O)nc2C(=O)Nc2ccc(C)c(C)c2)cc1 as the compound, how does the “activity change, negative = cytotoxicity” value read?
A: inactive: 0.234%

Q: For COC(=O)c1ccc(C(=O)Nc2ccc(-c3nc4cc(NC(=O)c5ccc(C(=O)OC)cc5)ccc4o3)cc2)cc1, which “activity change, negative = cytotoxicity” value is on record?
A: inactive: -4.31%

Q: For Cc1cccc(CSc2nc3cccnc3n2Cc2ccc(C(=O)NCc3ccco3)cc2)c1, which “activity change, negative = cytotoxicity” value is on record?
A: inactive: -24.3%

Q: With CCSc1ncc(Cl)c(C(=O)Nc2ccc(S(=O)(=O)Nc3nccc(C)n3)cc2)n1 as the compound, how does the “activity change, negative = cytotoxicity” value read?
A: inactive: -14.2%

Q: For Cc1ccc(Cl)cc1NC(=O)Cn1cc2c(n1)CCCCC2, which “activity change, negative = cytotoxicity” value is on record?
A: inactive: 18.3%

Q: Which “activity change, negative = cytotoxicity” value does the source give for Cc1noc2ncnc(N3CCN(c4ccccc4F)CC3)c12 here?
A: inactive: -10.9%

Q: With CCOC(=O)CSc1nnc2n(-c3ccccc3)c(=O)c3c4c(sc3n12)COC(C(C)C)C4 (centres undefined) as the compound, how does the “activity change, negative = cytotoxicity” value read?
A: inactive: 12.1%

Q: Which “activity change, negative = cytotoxicity” value does the source give for Cc1ccc(-n2nc(C)c3c(C(=O)O)cc(C)nc32)cc1 here?
A: inactive: 6.93%

Q: With Cc1cc2c(cc3c(=O)n(CC(=O)NCc4ccccc4Br)ncn32)s1 as the compound, how does the “activity change, negative = cytotoxicity” value read?
A: inactive: 9.1%

Q: Which “activity change, negative = cytotoxicity” value does the source give for CC(=O)N1CCc2c(sc3c2c(=O)n(-c2cccc(Cl)c2)c(=O)n3Cc2ccc(F)cc2Cl)C1 here?
A: inactive: -10.8%

Q: For Cc1nn(C)c2c1c(C(F)(F)F)cc(=O)n2CC(=O)N1CCN(c2ccccc2F)CC1, which “activity change, negative = cytotoxicity” value is on record?
A: inactive: -7.98%

Q: With Cc1cc(-c2ccc(C)c(S(=O)(=O)N3c4ccccc4CC3C)c2)on1 (centres undefined) as the compound, how does the “activity change, negative = cytotoxicity” value read?
A: inactive: -10.5%

Q: Which “activity change, negative = cytotoxicity” value does the source give for O=C(NCc1ccc2c(c1)CCN2C(=O)c1ccc(Cl)cc1)c1ccco1 here?
A: inactive: -24.4%

Q: Which “activity change, negative = cytotoxicity” value does the source give for CCOC(=O)c1c(NC(=O)/C=C/c2ccc(OCC)cc2)sc2c1CCCC2 here?
A: inactive: 14%

Q: Which “activity change, negative = cytotoxicity” value does the source give for O=C(Cn1c(=O)n(-c2ccccc2)c(=O)c2c3c(sc21)CCCC3)Nc1ccccc1 here?
A: inactive: 23%

Q: With CCOc1ccc(-c2cc(C(=O)NCCc3ccccc3)c3c(-c4ccc(C)cc4)[nH]nc3n2)cc1 as the compound, how does the “activity change, negative = cytotoxicity” value read?
A: inactive: 22.7%

Q: For Cc1cc(C)c2c(=O)c3c(oc2c1)C(=O)N(Cc1ccco1)C3c1ccc(F)cc1 (centres undefined), which “activity change, negative = cytotoxicity” value is on record?
A: inactive: 7.28%

Q: Which “activity change, negative = cytotoxicity” value does the source give for Cc1ccc(CC(=O)Nc2c(C(=O)N3CCN(c4ccccc4)CC3)oc3ccccc23)cc1 here?
A: inactive: -16%

Q: With CCOC(=O)c1noc2nc(C)n(CC(=O)Nc3ccc(OC)c(Cl)c3)c(=O)c12 as the compound, how does the “activity change, negative = cytotoxicity” value read?
A: inactive: -4.69%

Q: For O=C(O)CSc1nnc(-c2ccc(O)cc2)o1, which “activity change, negative = cytotoxicity” value is on record?
A: inactive: 1.99%

Q: With Cc1cc(N2CCC(C(=O)Nc3ccc(Cl)cc3)CC2)n2nc(C)c(-c3ccc(Cl)cc3)c2n1 as the compound, how does the “activity change, negative = cytotoxicity” value read?
A: inactive: 6.1%

Q: With Cc1nc(-c2ccc(S(=O)(=O)N(Cc3ccccc3)C(C)C)cc2)co1 as the compound, how does the “activity change, negative = cytotoxicity” value read?
A: inactive: 11.4%

Q: With COc1ccc(CCn2c(=O)c3cccnc3n(CC(=O)Nc3ccc(C)cc3C)c2=O)cc1OC as the compound, how does the “activity change, negative = cytotoxicity” value read?
A: inactive: 16.5%

Q: Which “activity change, negative = cytotoxicity” value does the source give for Cn1cc(C(=O)Nc2ccc(C#N)cc2)c2ccccc2c1=O here?
A: inactive: 18.1%

Q: Which “activity change, negative = cytotoxicity” value does the source give for O=C(Nc1cccc(C(=O)OCc2cc(=O)n3c4c(sc3n2)CCCC4)c1)c1cccc(Cl)c1 here?
A: inactive: 0.156%

Q: For COc1cccc(NC(=O)Cn2nnc(C(=O)NCCc3ccccc3)c2N)c1, which “activity change, negative = cytotoxicity” value is on record?
A: inactive: -4.97%

Q: For Cc1ccc(Cl)cc1NC(=O)C1CCN(C(=O)c2cnn(-c3ccccc3)c2-n2cccc2)CC1, which “activity change, negative = cytotoxicity” value is on record?
A: inactive: -20.1%

Q: Which “activity change, negative = cytotoxicity” value does the source give for O=C(CSc1nc2c([nH]c3ccccc32)c(=O)n1-c1ccc(F)cc1)NCc1ccc(F)cc1 here?
A: inactive: 1.75%

Q: Which “activity change, negative = cytotoxicity” value does the source give for CCOc1ccc(CCNC(=O)c2ccc3c(c2)nc2n3CCOC2)cc1OCC here?
A: inactive: 11.3%

Q: Which “activity change, negative = cytotoxicity” value does the source give for CC(C)OCCCNC(=O)CCCn1c(SCC(N)=O)nc2c(sc3ccccc32)c1=O here?
A: inactive: 3.36%

Q: Which “activity change, negative = cytotoxicity” value does the source give for Cc1cc(C)nc(NS(=O)(=O)c2ccc(NC(=O)c3nc(SC(C)C)ncc3Cl)cc2)n1 here?
A: inactive: -0.178%

Q: Which “activity change, negative = cytotoxicity” value does the source give for Cc1c(Cl)cccc1-n1ncc(C(=O)N2CCC(C)CC2)c1C1CCN(C(=O)OC(C)(C)C)CC1 here?
A: inactive: -5.09%

Q: Which “activity change, negative = cytotoxicity” value does the source give for Cc1oc(-c2ccc(C(=O)NCc3ccccc3F)cc2)nc1COc1ccccc1 here?
A: inactive: 12.1%

Q: Which “activity change, negative = cytotoxicity” value does the source give for CN(C(=O)C1CCN(c2ncnc3c2nc2n3CCCCC2)CC1)c1ccccc1F here?
A: inactive: -1.02%

Q: With CC(C)C(NS(=O)(=O)c1ccc2c(c1)oc(=O)n2C)C(=O)NCc1ccccc1 (centres undefined) as the compound, how does the “activity change, negative = cytotoxicity” value read?
A: inactive: 6.03%

Q: For CC(=O)c1ccc(N2CCN(C(=O)c3cc4c(s3)-c3ccccc3OC4)CC2)cc1, which “activity change, negative = cytotoxicity” value is on record?
A: inactive: -7.59%

Q: For COc1ccccc1CNC(=O)C1CCN(S(=O)(=O)c2ccc3[nH]c(=O)ccc3c2)CC1, which “activity change, negative = cytotoxicity” value is on record?
A: inactive: 8.89%

Q: With CCOC(=O)c1ccccc1NC(=O)NCc1cccn1Cc1ccc(F)cc1 as the compound, how does the “activity change, negative = cytotoxicity” value read?
A: inactive: -19.7%

Q: Which “activity change, negative = cytotoxicity” value does the source give for Cc1ccc(Cn2ccnc2SCC(=O)Nc2ccccc2C(F)(F)F)cc1 here?
A: inactive: 7.69%

Q: For COc1ccc(OC)c(NC(=O)CCn2cccn2)c1, which “activity change, negative = cytotoxicity” value is on record?
A: inactive: 6.02%

Q: For CCCn1c2ccccc2c2cnn(CC(=O)NCc3ccc(OC)cc3)c(=O)c21, which “activity change, negative = cytotoxicity” value is on record?
A: inactive: 15.2%

Q: With CC(=O)c1ccc(N2CCN(c3nc4ccccc4c4nc(-c5cccc(C)c5)nn34)CC2)cc1 as the compound, how does the “activity change, negative = cytotoxicity” value read?
A: inactive: -4.23%

Q: Which “activity change, negative = cytotoxicity” value does the source give for CCc1nn(CC(=O)N2CCN(c3cccc(Cl)c3)CC2)c(=O)c2cc3sccc3n12 here?
A: inactive: 2.42%

Q: For O=C1CC(c2cccc(Cl)c2Cl)c2cc3c(cc2N1)OCCO3 (centres undefined), which “activity change, negative = cytotoxicity” value is on record?
A: inactive: -17.4%
